This is an account of results in the GPR68 mutational scans of Howard et al. (2025).

B1: GPR68, Q15743 (parent)
chain: MGNITADNSSMSCTIDHTIHQTLAPVVYVTVLVVGFPANCLSLYFGYLQIKARNELGVYLCNLTVADLFYICSLPFWLQYVLQHDNWSHGDLSCQVCGILLYENIYISVGFLCCISVDRYLAVAHPFRFHQFRTLKAAVGVSVVIWAKELLTSIYFLMHEEVIEDENQHRVCFEHYPIQAWQRAINYYRFLVGFLFPICLLLASYQGILRAVRRSHGTQKSRKDQIQRLVLSTVVIFLACFLPYHVLLLVRSVWEASCDFAKGVFNAYHFSLLLTSFNCVADPVLYCFVSETTHRDLARLRGACLAFLTCSRTGRAREAYPLGAPEASGKSGAQGEEPELLTKLHPAFQTPNSPGSGGFPTGRLA

Scores with a large standard error are left out. Two further conditions of the source, in which the scores hardly spread, are not listed. In variant names, del marks residues removed and ins residues inserted between the two positions. For some of these results: The concentration of ogerin is not given here.

In data set [1] the parent is B1. In words: cAMP reporter score (Enrich2 score, wild type = 0); higher = more signal; HEK293T, FACS bins.
In data set [2] the parent is B1. Kind of data set: surface expression score (Enrich2 score, wild type = 0); higher = more signal; HEK293T, FACS bins.

As for R210_V212del, the cAMP reporter score in data set [1] (pH 5.5) is -1.69; in data set [1] (pH 6, modulator: ogerin) it was -1.04; in data set [1] (pH 6.5, modulator: ogerin), -1.24. The surface expression score in data set [2] was -1.
As for L209_R210insG, the cAMP reporter score in data set [1] (pH 5.5) is -0.48; in data set [1] (pH 6) it was -0.972; in data set [1] (pH 6, modulator: ogerin) it was -0.745; in data set [1] (pH 6.5, modulator: ogerin), -0.994. Also, in data set [2], the surface expression score is -1.83.
In the same order, the values of A211_V212insGS are -1.73, -1.95, -1.49, -0.859 and 0.278.
In the same order, the values of V212_R213del are -2.17, -0.591, -1.49, -1.51 and 1.01.
For R213A, in that order: 0.541, -0.005, 0.809, -0.035 and -0.12.
As for A211_V212insGSG, the cAMP reporter score in data set [1] (pH 5.5) was -1.56; in data set [1] (pH 6), -1.12; in data set [1] (pH 6, modulator: ogerin) it was -1.19; in data set [1] (pH 6.5, modulator: ogerin), -0.966. In addition, the surface expression score in data set [2] was -0.145.
Take R210D: the cAMP reporter score in data set [1] (pH 5.5) is -0.432; in data set [1] (pH 6), -0.809; in data set [1] (pH 6, modulator: ogerin) it was -0.577; in data set [1] (pH 6.5, modulator: ogerin), -0.489. In addition, the surface expression score in data set [2] was -0.951.
For the variant R210L, the cAMP reporter score in data set [1] (pH 5.5) stood at 0.694; in data set [1] (pH 6, modulator: ogerin), 0.522. Further, in data set [2], the surface expression score was determined as 0.013.
Take R210E: the cAMP reporter score in data set [1] (pH 5.5) was -0.031; in data set [1] (pH 6) it was -0.162; in data set [1] (pH 6, modulator: ogerin) it was 0.196; in data set [1] (pH 6.5, modulator: ogerin) it was -0.487. In addition, the surface expression score in data set [2] is -1.65.
In the same order, the values of R210G are 0.023, -0.044, 0.015, -0.514 and -0.4.
In the same order, the values of R210Q are -0.879, -0.773, -0.872, -0.586 and -1.07.
For the variant R210I, the cAMP reporter score in data set [1] (pH 5.5) is 0.214; in data set [1] (pH 6), -0.432; in data set [1] (pH 6, modulator: ogerin), 0.502; in data set [1] (pH 6.5, modulator: ogerin) it was 0.178. Further, the surface expression score in data set [2] was -0.193.
In the same order, the values of R210H are 0.436, -1.31, 0.145, -0.512 and -0.345.
Turning to R210C, the cAMP reporter score in data set [1] (pH 5.5) was 0.258; in data set [1] (pH 6, modulator: ogerin), -0.064; in data set [1] (pH 6.5, modulator: ogerin) it was -0.271. Also, in data set [2], the surface expression score worked out at 0.503.
As for R210P, the cAMP reporter score in data set [1] (pH 5.5) was -1.12; in data set [1] (pH 6), -1.04; in data set [1] (pH 6, modulator: ogerin), -2.18; in data set [1] (pH 6.5, modulator: ogerin), -1.09.
In the case of R210F, the cAMP reporter score in data set [1] (pH 5.5) is 1.04; in data set [1] (pH 6), -0.197; in data set [1] (pH 6, modulator: ogerin), 0.679; in data set [1] (pH 6.5, modulator: ogerin), -0.3. In addition, the surface expression score in data set [2] was 0.723.
With R210N, the cAMP reporter score in data set [1] (pH 5.5) is 0.745; in data set [1] (pH 6), 0.677; in data set [1] (pH 6, modulator: ogerin), 0.491; in data set [1] (pH 6.5, modulator: ogerin) it was -0.441. Moreover, the surface expression score in data set [2] was determined as 0.131.
R210V: the cAMP reporter score was determined as 0.498 in data set [1] (pH 5.5); 0.683 in data set [1] (pH 6); 0.915 in data set [1] (pH 6, modulator: ogerin); 0.212 in data set [1] (pH 6.5, modulator: ogerin). The surface expression score in data set [2] was -0.697.
Regarding R210K, the cAMP reporter score in data set [1] (pH 5.5) was 0.363; in data set [1] (pH 6) it was -0.974; in data set [1] (pH 6, modulator: ogerin), 0.593; in data set [1] (pH 6.5, modulator: ogerin) it was 1.07. In data set [2], the surface expression score is -0.702.
On to R210M, for which the cAMP reporter score is 0.52 in data set [1] (pH 5.5); -0.59 in data set [1] (pH 6); 0.075 in data set [1] (pH 6, modulator: ogerin); -0.615 in data set [1] (pH 6.5, modulator: ogerin). Further, the surface expression score in data set [2] was -0.585.
Take R210A: the cAMP reporter score was determined as 0.006 in data set [1] (pH 5.5); 0.542 in data set [1] (pH 6); 0.666 in data set [1] (pH 6, modulator: ogerin). For the same variant, in data set [2], the surface expression score came to 0.085.
As for R210W, the cAMP reporter score in data set [1] (pH 5.5) was 0.809; in data set [1] (pH 6), -0.265; in data set [1] (pH 6, modulator: ogerin), 1.02; in data set [1] (pH 6.5, modulator: ogerin) it was 0.224. Also, in data set [2], the surface expression score was 0.248.
With R210T, the cAMP reporter score was 0.339 in data set [1] (pH 5.5); 0.308 in data set [1] (pH 6, modulator: ogerin); -0.749 in data set [1] (pH 6.5, modulator: ogerin). Besides, in data set [2], the surface expression score came out at 0.067.
For the variant R210del, the cAMP reporter score in data set [1] (pH 5.5) is -1.16; in data set [1] (pH 6), -0.981; in data set [1] (pH 6, modulator: ogerin), -1.08; in data set [1] (pH 6.5, modulator: ogerin) it was -1.12. For the same variant, the surface expression score in data set [2] was -0.779.
In the same order, the values of L209M are -0.018, 0.48, 0.006, 0.458 and 0.042.
For L209Y, in that order: 0.644, -0.46, 0.05, 0.395 and 0.1.
In the same order, the values of L209F are -0.26, -1.64, -0.324, -0.251 and -1.07.
Take L209T: the cAMP reporter score in data set [1] (pH 5.5) was 0.53; in data set [1] (pH 6, modulator: ogerin), 0.499; in data set [1] (pH 6.5, modulator: ogerin) it was -0.038. Further, in data set [2], the surface expression score came out at 1.78.
L209Q: the cAMP reporter score in data set [1] (pH 5.5) is -1.52; in data set [1] (pH 6), -1.23; in data set [1] (pH 6, modulator: ogerin), -1.28; in data set [1] (pH 6.5, modulator: ogerin), -0.833. Also, the surface expression score in data set [2] was -0.321.
Regarding L209W, the cAMP reporter score came to 0.986 in data set [1] (pH 5.5); 0.847 in data set [1] (pH 6, modulator: ogerin); 0.759 in data set [1] (pH 6.5, modulator: ogerin). Also, in data set [2], the surface expression score came out at 0.265.
L209G: the cAMP reporter score was -0.182 in data set [1] (pH 5.5); -1.07 in data set [1] (pH 6); -0.477 in data set [1] (pH 6, modulator: ogerin).
Consider L209I, for which the cAMP reporter score in data set [1] (pH 5.5) is 0.474; in data set [1] (pH 6) it was 1.41; in data set [1] (pH 6.5, modulator: ogerin), 0.882. In addition, the surface expression score in data set [2] is 1.58.
